Experimental data published in the supplement of paper PMC8728848.
The list shows a part of the results.

How the values were obtained:
Experiment in all cases: glycan array binding signal (z-score within array); higher = stronger binding
Details in all cases: glycan notation: IUPAC condensed, linker removed
[1] = target: Gal3S(b1-4)GlcNAc6S
Method in brief: (§1)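 From the Consortium for Functional Glycomics database, 3228 arrays were curated, keeping only those whose protein sequence was available. Binding is given as a within-array Z-score averaged across arrays sharing a protein sequence and across linkers. Negative Z-scores can be read as non-binding.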

[2] = target: Gal3S(b1-4)[Fuc(a1-3)]Glc
Method in brief: as §1

[3] = target: Gal3S4S(b1-4)GlcNAc
Method in brief: as §1

[4] = target: Gal3S6S(b1-4)GlcNAc
Method in brief: as §1

[5] = target: Gal3S6S(b1-4)GlcNAc6S
Method in brief: as §1

[6] = target: Gal4S(b1-4)GlcNAc
Method in brief: as §1

[7] = target: Gal4S6S(b1-4)GlcNAc
Method in brief: as §1

[8] = target: Gal6S(b1-4)Glc
Method in brief: as §1

[9] = target: Gal6S(b1-4)Glc6S
Method in brief: as §1

[10] = target: Gal6S(b1-4)GlcNAc
Method in brief: as §1

[11] = target: Gal6S(b1-4)GlcNAc6S
Method in brief: as §1

[12] = target: GalNAc(a1-3)Gal
Method in brief: as §1

[13] = target: GalNAc(a1-3)GalNAc
Method in brief: as §1

[14] = target: GalNAc(b1-3)Gal
Method in brief: as §1

[15] = target: GalNAc(b1-3)Gal(a1-4)Gal(b1-4)GlcNAc
Method in brief: as §1

[16] = target: GalNAc(b1-3)GalNAc
Method in brief: as §1

[17] = target: GalNAc(b1-4)GlcNAc
Method in brief: as §1

[18] = target: Glc(a1-4)Glc
Method in brief: as §1

[19] = target: Glc(a1-6)Glc(a1-6)Glc
Method in brief: as §1

[20] = target: Glc(b1-4)Glc
Method in brief: as §1

[21] = target: Glc(b1-6)Glc
Method in brief: as §1

[22] = target: GlcA(b1-3)Gal
Method in brief: as §1

[23] = target: GlcA(b1-3)GlcNAc
Method in brief: as §1

[24] = target: GlcA(b1-6)Gal
Method in brief: as §1

[25] = target: GlcNAc(a1-3)Gal(b1-4)GlcNAc
Method in brief: as §1

[26] = target: GlcNAc(a1-6)Gal(b1-4)GlcNAc
Method in brief: as §1

[27] = target: GlcNAc(b1-2)Gal(b1-3)GalNAc
Method in brief: as §1

[28] = target: GlcNAc(b1-2)Man(a1-3)[GlcNAc(b1-2)Man(a1-6)]Man(b1-4)GlcNAc(b1-4)GlcNAc
Method in brief: as §1

[29] = target: GlcNAc(b1-3)Gal
Method in brief: as §1

[30] = target: GlcNAc(b1-3)Gal(b1-3)GalNAc
Method in brief: as §1

[31] = target: GlcNAc(b1-3)Gal(b1-4)Glc
Method in brief: as §1

[32] = target: GlcNAc(b1-3)Gal(b1-4)GlcNAc
Method in brief: as §1

[33] = target: GlcNAc(b1-3)Gal(b1-4)GlcNAc(b1-3)Gal(b1-4)GlcNAc
Method in brief: as §1

[34] = target: GlcNAc(b1-3)GalNAc
Method in brief: as §1

[35] = target: GlcNAc(b1-3)Man
Method in brief: as §1

[36] = target: GlcNAc(b1-3)[GlcNAc(b1-4)][GlcNAc(b1-6)]GlcNAc
Method in brief: as §1

[37] = target: GlcNAc(b1-3)[GlcNAc(b1-6)]Gal(b1-4)GlcNAc
Method in brief: as §1

[38] = target: GlcNAc(b1-3)[GlcNAc(b1-6)]GalNAc
Method in brief: as §1

[39] = target: GlcNAc(b1-4)Gal(b1-4)GlcNAc
Method in brief: as §1

[40] = target: GlcNAc(b1-4)GlcNAc
Method in brief: as §1

[41] = target: GlcNAc(b1-4)GlcNAc(b1-4)GlcNAc
Method in brief: as §1

[42] = target: GlcNAc(b1-4)GlcNAc(b1-4)GlcNAc(b1-4)GlcNAc(b1-4)GlcNAc
Method in brief: as §1

[43] = target: GlcNAc(b1-4)GlcNAc(b1-4)GlcNAc(b1-4)GlcNAc(b1-4)GlcNAc(b1-4)GlcNAc
Method in brief: as §1

[44] = target: GlcNAc(b1-4)[GlcNAc(b1-6)]GalNAc
Method in brief: as §1

[45] = target: GlcNAc(b1-6)Gal(b1-4)GlcNAc
Method in brief: as §1

[46] = target: GlcNAc(b1-6)GalNAc
Method in brief: as §1

[47] = target: GlcNAc3Prop(b1-4)GlcNAc
Method in brief: as §1

[48] = target: Kdn(a2-3)Gal(b1-3)GlcNAc
Method in brief: as §1

[49] = target: Kdn(a2-3)Gal(b1-4)GlcNAc
Method in brief: as §1

[50] = target: Man(a1-2)Man(a1-2)Man(a1-3)Man
Method in brief: as §1

[51] = target: Man(a1-2)Man(a1-2)Man(a1-6)[Man(a1-3)]Man
Method in brief: as §1

[52] = target: Man(a1-2)Man(a1-3)Man
Method in brief: as §1

[53] = target: Man(a1-2)Man(a1-3)[Man(a1-2)Man(a1-6)]Man
Method in brief: as §1

[54] = target: Man(a1-2)Man(a1-3)[Man(a1-2)Man(a1-6)]Man(a1-6)[Man(a1-2)Man(a1-2)Man(a1-3)]Man
Method in brief: as §1

[55] = target: Man(a1-2)Man(a1-3)[Man(a1-2)Man(a1-6)]Man(a1-6)[Man(a1-2)Man(a1-2)Man(a1-3)]Man(b1-4)GlcNAc(b1-4)GlcNAc
Method in brief: as §1

[56] = target: Man(a1-2)Man(a1-3)[Man(a1-6)]Man(a1-6)[Man(a1-2)Man(a1-3)]Man(b1-4)GlcNAc(b1-4)GlcNAc
Method in brief: as §1

[57] = target: Man(a1-2)Man(a1-6)[Man(a1-3)]Man(a1-6)[Man(a1-2)Man(a1-2)Man(a1-3)]Man
Method in brief: as §1

[58] = target: Man(a1-2)Man(a1-6)[Man(a1-3)]Man(a1-6)[Man(a1-2)Man(a1-2)Man(a1-3)]Man(b1-4)GlcNAc(b1-4)GlcNAc
Method in brief: as §1

[59] = target: Man(a1-3)[Man(a1-6)]Man
Method in brief: as §1

[60] = target: Man(a1-3)[Man(a1-6)]Man(a1-6)[Man(a1-2)Man(a1-3)]Man(b1-4)GlcNAc(b1-4)GlcNAc
Method in brief: as §1

[61] = target: Man(a1-3)[Man(a1-6)]Man(a1-6)[Man(a1-3)]Man
Method in brief: as §1

[62] = target: Man(a1-3)[Man(a1-6)]Man(a1-6)[Man(a1-3)]Man(b1-4)GlcNAc(b1-4)GlcNAc
Method in brief: as §1

[63] = target: Man(a1-3)[Man(a1-6)]Man(b1-4)GlcNAc(b1-4)GlcNAc
Method in brief: as §1

[64] = target: Man(a1-6)Man
Method in brief: as §1

[65] = target: Man(b1-4)GlcNAc
Method in brief: as §1

[66] = target: Neu5Ac(a2-3)Gal
Method in brief: as §1

[67] = target: Neu5Ac(a2-3)Gal(b1-3)GalNAc
Method in brief: as §1

[68] = target: Neu5Ac(a2-3)Gal(b1-3)GalNAc(b1-3)Gal(a1-4)Gal(b1-4)Glc
Method in brief: as §1

[69] = target: Neu5Ac(a2-3)Gal(b1-3)GalNAc(b1-3)Gal(b1-4)GlcNAc
Method in brief: as §1

[70] = target: Neu5Ac(a2-3)Gal(b1-3)GalNAc(b1-4)[Neu5Ac(a2-3)]Gal(b1-4)Glc
Method in brief: as §1

[71] = target: Neu5Ac(a2-3)Gal(b1-3)GalNAc6S
Method in brief: as §1

[72] = target: Neu5Ac(a2-3)Gal(b1-3)GlcNAc
Method in brief: as §1

[73] = target: Neu5Ac(a2-3)Gal(b1-3)GlcNAc(b1-3)Gal(b1-3)GlcNAc
Method in brief: as §1

[74] = target: Neu5Ac(a2-3)Gal(b1-3)GlcNAc6S
Method in brief: as §1

[75] = target: Neu5Ac(a2-3)Gal(b1-3)[Fuc(a1-4)]GlcNAc
Method in brief: as §1

B1: LSECtin (Homo sapiens), Q6UXB4 (protein)
chain: MEQESALRELRERVTQGLAEAGRGREDVRTELFRALEAVRLQNNSCEPCPTSWLSFEGSCYFFSVPKTTWAAAQDHCADASAHLVIVGGLDEQGFLTRNTRGRGYWLGLRAVRHLGKVQGYQWVDGVSLSFSHWNQGEPNDAWGRENCVMMLHTGLWNDAPCDSEKDGWICEKKAQLLTPPSALEPRPLQHVVSWGLLTSLAPGADCQRVFSSSSTAAESQKHLAQHSPVQPSAWALGPPCRPHPNSTHADPT
glycan array binding signal (z-score) [1]: -0.279 | glycan array binding signal (z-score) [2]: -0.173 | glycan array binding signal (z-score) [3]: -0.295 | glycan array binding signal (z-score) [4]: -0.29 | glycan array binding signal (z-score) [5]: -0.302 | glycan array binding signal (z-score) [6]: -0.291 | glycan array binding signal (z-score) [7]: -0.294 | glycan array binding signal (z-score) [8]: -0.276 | glycan array binding signal (z-score) [9]: -0.277 | glycan array binding signal (z-score) [10]: -0.285 | glycan array binding signal (z-score) [11]: -0.28 | glycan array binding signal (z-score) [12]: -0.26 | glycan array binding signal (z-score) [13]: -0.295 | glycan array binding signal (z-score) [14]: -0.287 | glycan array binding signal (z-score) [15]: -0.267 | glycan array binding signal (z-score) [16]: 1.04 | glycan array binding signal (z-score) [17]: -0.292 | glycan array binding signal (z-score) [18]: -0.288 | glycan array binding signal (z-score) [19]: -0.277 | glycan array binding signal (z-score) [20]: -0.313 | glycan array binding signal (z-score) [21]: -0.307 | glycan array binding signal (z-score) [22]: -0.307 | glycan array binding signal (z-score) [23]: -0.289 | glycan array binding signal (z-score) [24]: -0.312 | glycan array binding signal (z-score) [25]: -0.19 | glycan array binding signal (z-score) [26]: -0.298 | glycan array binding signal (z-score) [27]: -0.275 | glycan array binding signal (z-score) [28]: 5.09 | glycan array binding signal (z-score) [29]: 0.114 | glycan array binding signal (z-score) [30]: 0.298 | glycan array binding signal (z-score) [31]: 0.098 | glycan array binding signal (z-score) [32]: -0.118 | glycan array binding signal (z-score) [33]: -0.302 | glycan array binding signal (z-score) [34]: 0.65 | glycan array binding signal (z-score) [35]: 0.057 | glycan array binding signal (z-score) [36]: 0.623 | glycan array binding signal (z-score) [37]: -0.093 | glycan array binding signal (z-score) [38]: 0.493 | glycan array binding signal (z-score) [39]: -0.305 | glycan array binding signal (z-score) [40]: -0.001 | glycan array binding signal (z-score) [41]: -0.221 | glycan array binding signal (z-score) [42]: -0.309 | glycan array binding signal (z-score) [43]: -0.304 | glycan array binding signal (z-score) [44]: 0.471 | glycan array binding signal (z-score) [45]: -0.302 | glycan array binding signal (z-score) [46]: -0.174 | glycan array binding signal (z-score) [47]: -0.053 | glycan array binding signal (z-score) [48]: -0.302 | glycan array binding signal (z-score) [49]: -0.308 | glycan array binding signal (z-score) [50]: 0.057 | glycan array binding signal (z-score) [51]: 0.129 | glycan array binding signal (z-score) [52]: 0.15 | glycan array binding signal (z-score) [53]: 0.406 | glycan array binding signal (z-score) [54]: 1.22 | glycan array binding signal (z-score) [55]: -0.211 | glycan array binding signal (z-score) [56]: -0.041 | glycan array binding signal (z-score) [57]: 0.579 | glycan array binding signal (z-score) [58]: -0.225 | glycan array binding signal (z-score) [59]: 0.057 | glycan array binding signal (z-score) [60]: 0.106 | glycan array binding signal (z-score) [61]: 0.101 | glycan array binding signal (z-score) [62]: -0.271 | glycan array binding signal (z-score) [63]: 1.66 | glycan array binding signal (z-score) [64]: -0.289 | glycan array binding signal (z-score) [65]: -0.085 | glycan array binding signal (z-score) [66]: -0.305 | glycan array binding signal (z-score) [67]: -0.301 | glycan array binding signal (z-score) [68]: -0.275 | glycan array binding signal (z-score) [69]: -0.296 | glycan array binding signal (z-score) [70]: -0.305 | glycan array binding signal (z-score) [71]: -0.307 | glycan array binding signal (z-score) [72]: -0.296 | glycan array binding signal (z-score) [73]: -0.264 | glycan array binding signal (z-score) [74]: -0.115 | glycan array binding signal (z-score) [75]: -0.223
